Measured values taken from US20060122119A1, “Peptides for use in antitumor immunotherapy” (Institut Nat'l De La Sante Et De La Recherche Med., priority 2002, published 2006).
Ends that are not written are not given here.

Experiments:
HLA-B35 [1] = target: T1, HLA-B35 (Homo sapiens, UniProt P01889, A329T/A93T/A95T/C349S/D201E/D98Y/E176V/E187L/E204Q/E69T/I218V/K202T/L119I/Q94N/R155S/R180L/S121R/S35A/S48A/T118I/V127L/V306I/V36M/Y140S/Y91F); experiment: Relative affinity for HLA-B35: HLA-B35 stabilization at the BM36.1 cell surface, flow cytometry; conditions: [peptide] for 20% binding / [peptide 37F] for 20% binding; BM36.1 cells, 18 h
HLA-B35 [2] = target: T1, HLA-B35; experiment: Stability of the peptide on HLA-B*35: BM36.1 cells, BFA block, flow cytometry; assay type: binding; conditions: BM36.1 cells incubated 18 h with 100 μM peptide, then BFA
clone M118.45 = conditions: read-out: EC 50 (amount of peptide necessary to obtain 50% of the maximum lysis), BM36.1 cells, effector:target 10:1, 4 hours
BM36.1 cells = experiment: 51Cr-release lysis of ras-peptide-pulsed BM36.1 cells by a T clone induced with 55-64^Q61R; assay type: cell-based; conditions: 10 μM peptide; 5×10^3 T cells to 10^3 BM36.1 cells; 4 hours
Experimental: Lymphocyte clones were obtained by limiting dilution from the cells of the culture wells containing 0.5% of reactive T cells.
The cells are then pulsed for 1 hour at 37° C. with 10 μM of peptide 55-64^WT or of peptide 55-64^Q61R, and washed. […] The culture supernatants are recovered and the percentage of released ^51Cr is evaluated.

clone M28.10B = conditions: read-out: EC 50 (amount of peptide necessary to obtain 50% of the maximum lysis), BM36.1 cells, effector:target 10:1, 4 hours

Row | RA (relative affinity) (HLA-B35 [1]) | Stability (half-life time of the peptide on the HLA-B*35) (HLA-B35 [2]) [h] | Sequence | further results
1 | 0.4 | >6 | EPAGIGILY | –
2 | 1.32 | >6 | MPFATPMEAEL | –
3 | – | >6 | LAMPFATPMEAE | –
4 | 0.58 | >6 | LAMPFATPMEAEL | –
5 | – | >6 | MPFATPMEAE | –
6 | 1.32 | >6 | EAAGIGILY | –

More lines, now with the values behind:

Row | Sequence | RA (relative affinity) (HLA-B35 [1]) | Stability (half-life time of the peptide on the HLA-B*35) (HLA-B35 [2]) [h] | further results
7 | EVDPIGHVY | 1.1 | 6 | –
8 | VPLDCVLYRY | 2.6 | >6 | –
9 | TPRLPSSADVEFC | 16.7 | <0.5 | –
10 | MPFATPMEA | 0.4 | >6 | EC50 (clone M118.45): 1 pM
11 | ILDTAGREEY (listed as Homo sapiens) [55-64^Q61R, ras peptide 55-64 mutated at position 61 (Q61R)] | – | – | lysis of the BM36.1 cells pulsed with the peptide (BM36.1 cells): Considerable lysis
12 | TPRLPSSADVEF | 1.3 | >6 | –
13 | EVDPIGHLY [reference compound] | 2.3 | >6 | –
14 | TPRLPSSADVEFCL | >20 | >6 | –
15 | EPAGIGILTY | – | – | EC50 (clone M28.10B): 50 pM
16 | VPLDCVLYR | 20 | <0.5 | –
17 | EAAGIGILTY | – | – | EC50 (clone M28.10B): 10 pM
18 | ILDTAGQEEY (listed as Homo sapiens) [55-64^WT, wild-type ras peptide 55-64, reference compound] | – | – | lysis of the BM36.1 cells pulsed with the peptide (BM36.1 cells): very low
